{"source": "PubChem BioAssay AID488969", "about": "(Vanderbilt High Throughput Screening Facility, 2010)", "note": "The full ranking holds about 110,000 compounds; the median of “z-score” is about -0.1, and the highest 2% start at about 2. This is one part of the list. The source made the active and inactive calls.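 The calls were made as follows: active = z-score in the third read window above 3 or below -3; inactive = the rest.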"}
{"biological_target": "Metabotropic glutamate receptor 8 (Rattus norvegicus) (UniProt P70579)", "sequence (P70579 whole entry, looked up)": "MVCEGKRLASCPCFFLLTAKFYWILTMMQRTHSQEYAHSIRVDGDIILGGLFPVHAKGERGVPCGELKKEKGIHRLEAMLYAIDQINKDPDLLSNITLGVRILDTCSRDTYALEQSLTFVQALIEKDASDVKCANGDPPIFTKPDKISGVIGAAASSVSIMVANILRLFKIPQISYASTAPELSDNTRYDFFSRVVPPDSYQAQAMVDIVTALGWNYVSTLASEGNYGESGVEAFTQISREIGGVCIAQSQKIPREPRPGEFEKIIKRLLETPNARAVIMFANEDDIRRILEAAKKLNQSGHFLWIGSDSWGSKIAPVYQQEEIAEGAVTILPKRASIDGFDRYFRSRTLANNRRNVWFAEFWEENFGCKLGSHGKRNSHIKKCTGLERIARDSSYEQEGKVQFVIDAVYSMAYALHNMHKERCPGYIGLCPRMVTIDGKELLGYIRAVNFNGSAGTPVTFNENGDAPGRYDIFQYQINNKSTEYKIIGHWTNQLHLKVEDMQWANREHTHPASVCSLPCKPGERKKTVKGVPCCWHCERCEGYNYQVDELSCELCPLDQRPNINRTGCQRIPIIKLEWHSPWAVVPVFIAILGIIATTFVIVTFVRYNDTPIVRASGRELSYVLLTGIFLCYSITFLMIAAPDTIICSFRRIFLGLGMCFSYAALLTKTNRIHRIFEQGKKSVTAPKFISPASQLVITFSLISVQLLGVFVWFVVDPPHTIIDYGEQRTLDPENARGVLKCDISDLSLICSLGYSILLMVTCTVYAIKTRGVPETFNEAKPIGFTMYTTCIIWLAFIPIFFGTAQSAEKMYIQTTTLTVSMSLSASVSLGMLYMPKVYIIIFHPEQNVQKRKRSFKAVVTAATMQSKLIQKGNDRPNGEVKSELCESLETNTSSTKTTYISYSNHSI", "assay": "rat mGluR8 modulators via GIRK flux, primary screen, cell-based, thallium flux, HTS (AID 488969)", "conditions": "HEK293 rat mGluR8, GIRK (G protein-gated inwardly rectifying potassium channel) thallium flux, FluoZin2; at 10 µM; stronger effect = higher value; submaximal glutamate (EC20) added with thallium"}
{"smiles": "COc1ccc(Cl)cc1NC(=O)CN1CCC(n2nnc3cc(F)ccc32)CC1", "z-score": -0.0313}
{"smiles": "CC(C)c1ccc2[nH]c(O)c(N=NC(=O)c3ccc(CSc4nncn4C)cc3)c2c1", "z-score": -0.159}
{"smiles": "CCN1C2=NCCCN2c2cc(C)c(C)cc21", "z-score": 0.542}
{"smiles": "Cc1cc(N2CCN(c3nc(N4CCOCC4)nc4ccccc34)CC2)c2ccccc2n1", "z-score": 0.213}
{"smiles": "C/C(CC1(O)C(=O)N(Cc2ccccc2)c2ccccc21)=N\\O", "note": "(stereo unspecified)", "z-score": 1.12}
{"smiles": "Cc1cc2ccccc2c(=O)n1CC(=O)N1CCN(c2cccc(Cl)c2)CC1", "z-score": 0.19}
{"smiles": "Cc1occc1C(=O)NC(C)C(C)(C)C", "note": "(stereo unspecified)", "z-score": 0.462}
{"smiles": "CCC(Sc1nc(C)cc(=O)[nH]1)C(=O)Nc1nnc(C)s1", "note": "(stereo unspecified)", "z-score": -2.59}
{"smiles": "CCOCCCn1c(SCc2nc3ccccc3s2)nc2ccccc2c1=O", "z-score": -0.415}
{"smiles": "Cc1onc(-c2ccccc2Cl)c1C(=O)N1CCCCC1C(=O)O", "note": "(stereo unspecified)", "z-score": 1.48}
{"smiles": "COc1cc2c(cc1NS(=O)(=O)N1CCCCC1)oc1ccccc12", "z-score": -0.115}
{"smiles": "Cc1ccccc1NC(=S)N1CCOCC1", "z-score": 0.469}
{"smiles": "Cc1cccc(NC(=O)C2(c3ccc([N+](=O)[O-])cc3)CCCC2)c1", "z-score": -0.327}
{"smiles": "COc1ccccc1S(=O)(=O)Nc1cccc(-c2nnc3n2CCCCC3)c1", "z-score": -0.163}
{"smiles": "Cc1ccc(NC(=S)N/N=C/c2c(Cl)cccc2Cl)c(C)c1", "z-score": "active: 9.31"}
{"smiles": "Cc1noc(C)c1CSc1nnc(-c2ccccc2)n1N", "z-score": -0.0754}
{"smiles": "O=C(Cn1cnc2ccccc2c1=O)Nc1nnc(SCc2ccccc2)s1", "z-score": -0.255}
{"smiles": "O=C(NC(Cc1ccccc1)C(=O)O)/C(=C\\c1ccco1)NC(=O)c1ccccc1", "note": "(stereo unspecified)", "z-score": -0.146}
{"smiles": "Cn1c(=O)c2c(nc(CN3CCc4ccccc4C3)n2CC(=O)c2ccccc2)n(C)c1=O", "z-score": -0.969}
{"smiles": "COc1ccc(C(=O)CN2C(=O)NC3(CCCc4ccccc43)C2=O)cc1OC", "note": "(stereo unspecified)", "z-score": -0.109}
{"smiles": "COc1ccc(CC(=O)Nc2ccc(-c3noc(-c4cc(OC)c(OC)c(OC)c4)n3)cc2)cc1", "z-score": 0.703}
{"smiles": "Cc1ccc(-c2nc(CSCC(=O)NCc3cccnc3)c(C)o2)cc1", "z-score": 0.521}
{"smiles": "O=C(CCc1ccc(S(=O)(=O)NCCc2ccccc2)cc1)NCc1ccco1", "z-score": -0.0958}
{"smiles": "CN(C)S(=O)(=O)c1ccc(Cl)c(NC(=O)COC(=O)C2CSC3(C)CCC(=O)N23)c1", "note": "(stereo unspecified)", "z-score": 0.535}
{"smiles": "O=C1CC(C(=O)Nc2ccc(C(=O)N3CCOCC3)cc2)C2(CCCCC2)O1", "note": "(stereo unspecified)", "z-score": -0.248}
{"smiles": "CCCC(=O)N1c2ccccc2C(=C2SC(C(=O)OC)=C(C(=O)OC)S2)C(=S)C1(C)C", "z-score": 0.183}
{"smiles": "C=CCN(c1ccccc1)S(=O)(=O)c1cccc(C(=O)Nc2nc3ccccc3[nH]2)c1", "z-score": -0.176}
{"smiles": "O=C1CCCc2nn(-c3ccccc3)nc21", "z-score": 0.93}
{"smiles": "FC(F)(F)c1cccc(OCCN2CCN(Cc3ccccc3)CC2)c1", "z-score": 0.397}
{"smiles": "O=S(=O)(c1ccccc1Cl)N1CCCC1c1nc(-c2ccccc2Cl)no1", "note": "(stereo unspecified)", "z-score": -0.426}
{"smiles": "COc1ccc(C(=O)N2CC=C(c3ccccc3)CC2)cc1S(=O)(=O)N1CCOCC1", "z-score": -0.516}
{"smiles": "CC(=O)N1C(=O)/C(=C2\\SC(=S)N(c3c(C)n(C)n(-c4ccccc4)c3=O)C2=O)c2ccccc21", "z-score": -0.512}
{"smiles": "COC(=O)c1[nH]c2ccc(C)cc2c1NC(=O)CN1CCN(c2ccc(F)cc2)CC1", "z-score": -0.183}
{"smiles": "O=C(CN1CCN(Cc2ccccc2Cl)CC1)N=Nc1c(O)[nH]c2ccccc12", "z-score": -0.318}
{"smiles": "O=C(Nc1ccc(-c2nnc(-c3ccccc3)o2)cc1)C(F)(F)F", "z-score": 0.955}
{"smiles": "O=C1OC(Nc2ncccn2)c2ccccc21", "note": "(stereo unspecified)", "z-score": -0.0312}
{"smiles": "CSc1nnc(-c2cc(-c3ccc(C)cc3)nc3ccccc23)o1", "z-score": -0.0721}
{"smiles": "CCOC(=O)N1CCC(NC(=O)CN2C(=O)CSc3nc(C)cc(C)c32)CC1", "z-score": 1.13}
{"smiles": "CCOc1ccc(OCc2ccc(C(=O)N3N=C(C(F)F)CC3(O)C(F)F)o2)cc1", "note": "(stereo unspecified)", "z-score": 0.47}
{"smiles": "CCc1sc(-c2c(C#N)c(N)nc3c2CCCCCC3)cc1[N+](=O)[O-]", "z-score": -0.138}
{"smiles": "COc1ccc(-c2c(C#N)c(SCC(N)=O)nc3c2CCCC3)cc1", "z-score": -0.089}
{"smiles": "Cc1ccc(Cl)cc1N1CCN(C(=O)CN2C(=O)c3cccc4cccc2c34)CC1", "z-score": 1.97}
{"smiles": "Cc1ccc(NN=Nc2nc3c([nH]2)c(=O)n(C)c(=O)n3C)cc1", "z-score": 0.267}
{"smiles": "O=c1[nH]nc(Cc2ccc(-c3cccc(Cl)c3)o2)c2ccccc12", "z-score": -0.0601}
{"smiles": "Oc1c(Br)cc(C2N=C(c3ccccc3)NO2)cc1Br", "note": "(stereo unspecified)", "z-score": -0.338}
{"smiles": "CCOC(=O)c1c(C)[nH]c(C(=O)COC(=O)c2ccc(N3CCCC3=O)cc2)c1C", "z-score": 0.0485}
{"smiles": "Cn1cccc1/C=C1\\SC(=S)N(NC(=O)c2cccc(Cl)c2)C1=O", "z-score": -0.218}
{"smiles": "CC(Cc1ccccc1)NC(=O)c1ccc([N+](=O)[O-])cc1", "note": "(stereo unspecified)", "z-score": -0.0984}
{"smiles": "C/C(=N\\NC(=O)c1nn(C)c(C)c1Br)c1ccc(NC(=O)c2ccccc2F)cc1", "z-score": -0.124}
{"smiles": "CCN(CC)C(=O)CN1C(=O)C2(OCC(C)(c3ccccc3)CO2)c2ccccc21", "note": "(stereo unspecified)", "z-score": -0.553}
{"smiles": "CC(=O)Nc1ccc(C(=O)N/N=C/c2cccnc2)cc1", "z-score": -0.709}
{"smiles": "Cc1cccc(N2CCN(C(=O)c3ccc(N4CCCC4=O)cc3)CC2C)c1", "note": "(stereo unspecified)", "z-score": -0.0519}
{"smiles": "Cc1cc(Cl)ccc1OC(C)c1nnc(N)s1", "note": "(stereo unspecified)", "z-score": 1.98}
{"smiles": "CCCNC(=S)Nc1ccc(Cl)cc1C", "z-score": -0.142}
{"smiles": "CN(C)c1nc(OCCNC(=O)COc2ccc(Cl)cc2Cl)nc(N2CCOCC2)n1", "z-score": -0.541}
{"smiles": "CCc1ccccc1NC(=O)CSc1nnc(Cn2nnc3ccccc32)n1C", "z-score": 0.18}
{"smiles": "Cc1cc(C)c(S(=O)(=O)ON2C(=O)c3ccccc3C2=O)cc1C", "z-score": 0.253}
{"smiles": "COc1ccc(CN(C(=O)c2cnccn2)C(C(=O)Nc2ccc(F)cc2)c2ccccc2)cc1", "note": "(stereo unspecified)", "z-score": -0.407}
{"smiles": "COc1ccc(-n2cnc3cc(N)ccc32)cc1", "z-score": -0.0506}
{"smiles": "COc1cc(C(C#N)N2N=C(c3ccccc3)CC2c2ccccc2)ccc1O", "note": "(stereo unspecified)", "z-score": -0.262}
{"smiles": "CCOC(=O)c1ccccc1NC(=O)c1cn(-c2ccc(OC)cc2)c(=O)c2ccccc12", "z-score": -0.291}
{"smiles": "COc1ccccc1CNC(=O)COC(=O)Cc1c(Cl)cccc1Cl", "z-score": 0.27}
{"smiles": "COc1ccc(C2OC(=O)c3ccccc3S2)cc1", "note": "(stereo unspecified)", "z-score": -0.435}
{"smiles": "O=C(COc1ccc(F)cc1)NNC(=O)c1cc2ccccc2oc1=O", "z-score": -0.0129}
{"smiles": "CC1SC(C)C(=O)N(CC(=O)NCc2ccc(F)cc2)C1=O", "note": "(stereo unspecified)", "z-score": 0.557}
{"smiles": "CCS(=O)(=O)N1CCN(c2ccc(C(=O)NC3C4CC5CC(C4)CC3C5)cc2[N+](=O)[O-])CC1", "note": "(stereo unspecified)", "z-score": -0.251}
{"smiles": "Cc1cccc(C)c1Nc1nnc(SCC(=O)NCc2cccs2)s1", "z-score": 0.0784}
{"smiles": "O=C(COC(=O)c1cn(-c2ccccc2)nc1-c1ccccc1)c1ccc([N+](=O)[O-])cc1", "z-score": -0.413}
{"smiles": "Cc1ccc(C)c(N(CC(=O)NC2CCCC2)C(=O)c2oc(C(C)(C)C)cc2C)c1", "z-score": 0.144}
{"smiles": "CC(C)(C)C(=O)OCc1cn(-c2ccc(Cl)cc2)nn1", "z-score": -0.337}
{"smiles": "Cn1ncc([N+](=O)[O-])c1C(=O)N/N=C/c1ccc(F)cc1", "z-score": 0.132}
{"smiles": "CCN(CC)S(=O)(=O)c1ccc(OC)c(NC(=O)CSc2cc(C)ccc2C)c1", "z-score": -0.247}
{"smiles": "CCOC(=O)CSc1nc2cc(C(=O)OC)ccc2c(=O)n1CCN1CCOCC1", "z-score": -0.288}
{"smiles": "O=C(CCCOc1ccccc1)N1CCN(c2ccccn2)CC1", "z-score": -0.0282}
{"smiles": "COCCNC(=O)c1onc(CSc2cccc(C)c2)c1C(=O)O", "z-score": -0.0105}
{"smiles": "COc1ccccc1NS(=O)(=O)c1cc(NC(=O)CNC(=O)c2ccccc2)ccc1C", "z-score": 0.333}
{"smiles": "COc1ccc(N(C(=O)COc2ccccc2)C2C=CS(=O)(=O)C2)cc1", "note": "(stereo unspecified)", "z-score": 0.581}
{"smiles": "Cc1ccc2c(c1)NC(=O)C(CC(=O)NCCN(CC(C)C)CC(C)C)O2", "note": "(stereo unspecified)", "z-score": 1.96}
{"smiles": "CC(C)CC(=O)NCCCCc1ccccc1", "z-score": -0.29}
{"smiles": "O=C(NCCN1CCN(c2ccccc2)CC1)c1cccn2c(=O)c3ccccc3nc12", "z-score": -0.678}
{"smiles": "Cc1cc(C)c2nc(C(F)(F)F)nc(NCCCN3CCCC3=O)c2c1", "z-score": -0.00172}
{"smiles": "O=C1C=C(c2ccccc2)C(O)(c2ccccc2)C1", "note": "(stereo unspecified)", "z-score": -0.731}
{"smiles": "O=C(CSc1ncnc2c1oc1ccccc12)N1CCN(c2ccccc2)CC1", "z-score": 1.3}
{"smiles": "Cc1ccc(C2NC(=O)NC(O)(C(F)(F)F)C2C(=O)c2cccs2)o1", "note": "(stereo unspecified)", "z-score": -0.404}
{"smiles": "CN1C(=O)CSc2ccc(NC(=O)N3CCN(c4ccccn4)CC3)cc21", "z-score": -0.23}
{"smiles": "Nc1cc(-c2nn[nH]n2)ccc1F", "z-score": 0.91}
{"smiles": "COc1ccc(N2CS(=O)(=O)/C(=C/N(C)C)C2=O)cc1", "z-score": 0.0604}
{"smiles": "COc1cccc(-c2nnc(SCC(=O)Nc3cc(C)ccc3OC)n2N)c1", "z-score": -0.148}
{"smiles": "CCCn1c(=O)c2c(C(F)(F)F)cc(-c3ccco3)nc2n(CCC)c1=O", "z-score": -0.0167}
{"smiles": "O=C(/C=C/c1cc2c(cc1Br)OCO2)NCc1ccc(Cl)cc1", "z-score": -0.78}
{"smiles": "COc1ccc(-n2c(Cc3ccccc3)nnc2SCC(=O)N2CCCc3ccccc32)cc1", "z-score": -0.107}
{"smiles": "O=C(NC1CCCCC1)C(c1ccc(F)cc1)N(Cc1ccccc1)C(=O)CN1C(=O)c2ccccc2S1(=O)=O", "note": "(stereo unspecified)", "z-score": -0.103}
{"smiles": "O=c1sc2ccccc2n1COc1ccc(Cl)cc1", "z-score": -0.228}
{"smiles": "Cc1csc(NC(=O)/C=C/c2ccco2)n1", "z-score": 0.157}
{"smiles": "CCc1sc(C(=O)N2CCN(S(C)(=O)=O)CC2)cc1Br", "z-score": 1.03}
{"smiles": "Cc1cccc(OCC(=O)N/N=C/c2cn[nH]c2-c2ccc(Cl)c(Cl)c2)c1", "z-score": -0.059}
{"smiles": "S=C(Nc1cccc(Cl)c1)Nc1ccccc1Oc1ccccc1", "z-score": "active: 15.4"}
{"smiles": "Fc1ccccc1NC(=S)N1CCN(Cc2ccccc2)CC1", "z-score": -0.181}
{"smiles": "COCCn1c(=O)[nH]c2cc(C(=O)OC)ccc2c1=O", "z-score": -0.288}
{"smiles": "COC(=O)c1nc2nc(C)cc(=O)n2[nH]1", "z-score": -0.262}
{"smiles": "C/C=C/c1ccc(Oc2nnnn2-c2ccc(C(N)=O)cc2)c(OC)c1", "z-score": 0.186}
{"smiles": "Cn1c(C(=O)N2CCN(c3ccc(Cl)cc3)CC2)cc2c(=O)[nH]c3ccccc3c21", "z-score": -1.82}
{"smiles": "COc1ccc(-c2csc3[nH]c(=S)n(-c4ccccc4)c(=O)c23)cc1OC", "z-score": -0.702}
{"smiles": "Cn1c(Cl)c(C(=O)Nc2ccc(Cl)cc2)c2ccccc21", "z-score": -0.19}
{"smiles": "Cc1cc(/C=C(\\C#N)C(=O)OCC(=O)NC(=O)NC(C)(C)C)c(C)n1CCC(C)C", "z-score": 0.318}
{"smiles": "CCCc1cc(C(N)=O)c(NC(C)=O)s1", "z-score": 0.129}
